Inconclusive results and toxic doses are left out. A number of entries come with more than one value. The list is limited to them. An entry can have further records. Values given together repeat one measurement in other runs, samples, wells, individuals or studies. Numbered stars: 1 amine (or outer) side, 2 acyl side, 3 side chain; on linkers, the order of the positions; unused ones are H or OH. Bridge positions count the residues as written; N and C are the ends. Square brackets hold non-standard residues; d marks the D form. Peptide text beside a SMILES is read from it. I, II: the chains in the order shown. Actinocin(9to1) = Cc1c2oc3c(C)ccc(C(=O)[*:1])c3nc-2c(C(=O)[*:2])c(N)c1=O; aThr = C[C@H](O)[C@H](N)C(=O)O; NMeV = CN[CH](C(=O)O)C(C)C; Aze = O=C(O)[CH]1CCN1; Sar = CNCC(=O)O
System: BDF1 mice, B16 melanoma ip, median survival T/C
Experiment: NCI In Vivo Anticancer Drug Screen. Data for tumor model B16 Melanoma (intraperitoneal) in B6D2F1 (BDF1) mice
Details: endpoint: median survival time, higher = longer survival
Experimental: The antitumor activity of compounds was measured in mice bearing transplantable tumors. Survival or tumor size were measured and the results are expressed as the measurement made in the treated group (T) divided by the measurement made in the vehicle treated control group (C). The tumor model used in this assay is B16 Melanoma (intraperitoneal) in B6D2F1 (BDF1) mice

CSC1SCC2C(=O)N(C)C(C(C)C)C(=O)OCC(NC(=O)c3cnc4ccccc4n3)C(=O)NC(C)C(=O)N(C)C1C(=O)N(C)C(C(C)C)C(=O)OCC(NC(=O)c1cnc3ccccc3n1)C(=O)NC(C)C(=O)N2C (centres undefined)
T/C (dose: 7.5 micrograms/kg/injection, schedule: Q01DX009 (ip), vehicle: saline): 123 % of control and 165 % of control | T/C (dose: 15.0 micrograms/kg/injection, schedule: Q01DX009 (ip), vehicle: saline with Tween-80): 100 % of control and 158 % of control | T/C (dose: 60.0 micrograms/kg/injection, schedule: Q01DX009 (ip), vehicle: saline with Tween-80): 87 % of control and 175 % of control

O=C1c2ccccc2C(=O)c2c(NCCNCCO)ccc(NCCNCCO)c21
T/C (dose: 37.5 mg/kg/injection, schedule: Q01DX001 (ip), vehicle: Klucel (hydroxypropylcellulose) (HPC)): 102 % of control and 161 % of control

CCCCCCCCCCCCCCCC(=O)N(C/C=C/CN(CCCN(C)C)C(=O)CCCCCCCCCCCCCCC)CCCN(C)C
T/C (dose: 12.5 mg/kg/injection, schedule: Q01DX009 (ip), vehicle: saline with Tween-80): 93 % of control and 175 % of control

CC(=O)NC1CCCCC1
T/C (dose: 50.0 mg/kg/injection, schedule: Q04DX003 (ip), vehicle: saline with Tween-80): 90 % of control and 161 % of control

C1CN(P2(N3CC3)=NP(N3CC3)(N3CC3)=NP(N3CC3)(N3CC3)=N2)CCO1 (centres undefined)
T/C (dose: 50.0 mg/kg/injection, schedule: Q02DX009 (ip), vehicle: saline): 101 % of control and 191 % of control | T/C (dose: 64.0 mg/kg/injection, schedule: Q02DX009 (ip), vehicle: saline): 88 % of control and 318 % of control

O=C1C=CC(=O)O1 (tested in a mixture with another compound)
T/C (dose: 100.0 mg/kg/injection, schedule: Q04DX003 (ip), vehicle: saline): 115 % of control and 172 % of control | T/C (dose: 200.0 mg/kg/injection, schedule: Q04DX003 (ip), vehicle: saline): 120 % of control, 171 % of control, 179 % of control

Cc1ccc(N=Nc2c(O)ccc3ccccc23)c(C)c1
T/C (dose: 100.0 mg/kg/injection, schedule: Q01DX009 (ip), vehicle: Klucel (hydroxypropylcellulose) (HPC)): 96 % of control and 150 % of control | T/C (dose: 200.0 mg/kg/injection, schedule: Q01DX009 (ip), vehicle: Klucel (hydroxypropylcellulose) (HPC)): 91 % of control and 150 % of control

CCCCC(=O)OCC(=O)[C@]1(O)Cc2c(O)c3c(c(O)c2[C@@H](OC2CC(NC(=O)C(F)(F)F)C(O)C(C)O2)C1)C(=O)c1c(OC)cccc1C3=O (some centres undefined)
T/C (dose: 18.75 mg/kg/injection, schedule: Q01DX001 (ip), vehicle: clinical formulation): 109 % of control and 164 % of control | T/C (dose: 37.5 mg/kg/injection, schedule: Q01DX001 (ip), vehicle: clinical formulation): 123 % of control and 178 % of control

COc1ccc(C[C@H](N)C(=O)NC2C(CO)OC(n3cnc4c(N(C)C)ncnc43)C2O)cc1 (some centres undefined)
T/C (dose: 80.0 mg/kg/injection, schedule: Q01DX009 (ip), vehicle: saline): 124 % of control and 177 % of control

O=C1c2c(O)ccc(O)c2C(=O)c2c(NCCNCCO)ccc(NCCNCCO)c21
T/C (dose: 0.5 mg/kg/injection, schedule: Q01DX009 (ip), vehicle: saline with Tween-80): 123 % of control and 155 % of control

Cc1c2oc3c(C)ccc(C(=O)NC4C(=O)NC(C(C)C)C(=O)N5CCC5C(=O)N(C)CC(=O)N(C)C(C(C)C)C(=O)OC4C)c3nc-2c(C(=O)NC2C(=O)NC(C(C)C)C(=O)N3CCC3C(=O)N(C)CC(=O)N(C)C(C(C)C)C(=O)OC2C)c(N)c1=O (centres undefined) (I: TV[Aze][Sar][NMeV] / II: TV[Aze][Sar][NMeV]; ester I:1-I:C, II:1-II:C; linker I:N-II:N via Actinocin(9to1); configuration not given here)
T/C (dose: 0.6 mg/kg/injection, schedule: Q04DX003 (ip), vehicle: saline + alcohol): 122 % of control and 156 % of control

COc1cccc2c1C(=O)c1c(O)c3c(c(O)c1C2=O)C[C@@](O)(/C(C)=N/NC(=O)c1ccccc1)C[C@@H]3OC1CC(N)C(O)C(C)O1 (some centres undefined)
T/C (dose: 1.5 mg/kg/injection, schedule: Q04DX003 (ip), vehicle: saline): 102 % of control and 158 % of control

Nc1nc(=O)n(C2OC(CO)C(O)C2O)cc1F (centres undefined)
T/C (dose: 25.0 mg/kg/injection, schedule: Q01DX009 (ip), vehicle: saline): 112 % of control and 152 % of control

CC[C@H]1CN2CCc3cc(OC)c(OC)cc3[C@@H]2C[C@@H]1C[C@H]1NCCc2cc(O)c(OC)cc21
T/C (dose: 4.0 mg/kg/injection, schedule: Q01DX009 (ip), vehicle: saline): 122 % of control and 153 % of control

Cc1c2oc3c(C)ccc(C(=O)N[C@@H]4C(=O)N[C@H](C(C)C)C(=O)N5CCC[C@H]5C(=O)N(C)CC(=O)N(C)[C@@H](C(C)C)C(=O)O[C@H]4C)c3nc-2c(C(=O)N[C@@H]2C(=O)N[C@H](C(C)C)C(=O)N3CCC[C@H]3C(=O)N(C)CC(=O)N(C)[C@@H](C(C)C)C(=O)O[C@H]2C)c(N)c1=O (I: [aThr][dV]P[Sar][NMeV] / II: [aThr][dV]P[Sar][NMeV]; ester I:1-I:C, II:1-II:C; linker I:N-II:N via Actinocin(9to1))
T/C (dose: 112.0 micrograms/kg/injection, schedule: Q04DX003 (ip), vehicle: saline + alcohol): 121 % of control and 157 % of control | T/C (dose: 150.0 micrograms/kg/injection, schedule: Q04DX003 (ip), vehicle: saline): 117 % of control and 158 % of control

O=[As](O)(O)c1ccc(Nc2nc(Cl)nc(Cl)n2)cc1
T/C (dose: 12.5 mg/kg/injection, schedule: Q01DX009 (ip), vehicle: Klucel (hydroxypropylcellulose) (HPC)): 100 % of control and 156 % of control | T/C (dose: 25.0 mg/kg/injection, schedule: Q01DX009 (ip), vehicle: Klucel (hydroxypropylcellulose) (HPC)): 100 % of control and 150 % of control

C[C@H](CN1CC(=O)NC(=O)C1)N1CC(=O)NC(=O)C1
T/C (dose: 400.0 mg/kg/injection, schedule: Q04DX003 (ip), vehicle: water): 117 % of control and 150 % of control

Cc1ccc(S(=O)(=O)NC(=S)S)cc1
T/C (dose: 200.0 mg/kg/injection, schedule: Q01DX009 (ip), vehicle: saline with Tween-80): 91 % of control and 161 % of control

COc1cccc2c1C(=O)c1c(O)c3c(c(O)c1C2=O)C[C@@](O)(C(=O)CO)C[C@@H]3OC1CC(N)C(O)C(C)O1 (some centres undefined)
T/C (dose: 0.25 mg/kg/injection, schedule: Q04DX003 (ip), vehicle: saline): 116 % of control and 161 % of control | T/C (dose: 2.5 mg/kg/injection, schedule: Q01DX001 (ip), vehicle: saline): 122 % of control and 200 % of control | T/C (dose: 3.0 mg/kg/injection, schedule: Q01DX001 (ip), vehicle: saline): 122 % of control and 412 % of control

— PubChem BioAssay AID192 (DTP/NCI, 2004)
